Drawing on PubChem BioAssay AID1645887 (National Center for Advancing Translational Sciences (NCATS), 2021), this text covers activation for 57 compounds.

“And” between values parts separate entries of the source, which are not always exact repeats. Identical values can stand only once. In all, about 16,000 compounds went through this assay and about 40 (0.2%) were called active. Another 1% or so got no clear call; they are omitted. Calls come from the whole dose curve; as a rule, active = well fitted activation curve with a large enough effect; inconclusive = small, poorly fitted or top-dose-only effect, or another doubt; inactive = no such curve, though single readings can be large or run the other way. Some of the results follow.
% is set by controls: 0 for no effect and ±100 for the full control effect.

This test has as its target Rap guanine nucleotide exchange factor 4 (Homo sapiens) (UniProt Q8WZA2). Nature of the test: Validation qHTS for agonist of cAMP-regulated guanine nucleotide exchange factor 4 (EPAC2).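 Note: exchange makes BODIPY-GDP fluorescence drop when released from Rap1B; series mostly up to about 150 µM.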 The settings on record: EPAC2 Rap1B BODIPY-GDP exchange, fluorescence; activation: stronger effect = higher value. The gist of the method: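 Fluorescent exchange assay: 100 nM EPAC2 with 250 nM RAP1B-BODIPY-GDP and 50 uM GDP; compound added, 5 min at room temperature, then read (ex 480/em 540 nm) every 5 min for 30 min. Normalized to 6.5 mM cAMP agonist control.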
UniProt Q8WZA2, sequence (Q8WZA2 whole entry, looked up): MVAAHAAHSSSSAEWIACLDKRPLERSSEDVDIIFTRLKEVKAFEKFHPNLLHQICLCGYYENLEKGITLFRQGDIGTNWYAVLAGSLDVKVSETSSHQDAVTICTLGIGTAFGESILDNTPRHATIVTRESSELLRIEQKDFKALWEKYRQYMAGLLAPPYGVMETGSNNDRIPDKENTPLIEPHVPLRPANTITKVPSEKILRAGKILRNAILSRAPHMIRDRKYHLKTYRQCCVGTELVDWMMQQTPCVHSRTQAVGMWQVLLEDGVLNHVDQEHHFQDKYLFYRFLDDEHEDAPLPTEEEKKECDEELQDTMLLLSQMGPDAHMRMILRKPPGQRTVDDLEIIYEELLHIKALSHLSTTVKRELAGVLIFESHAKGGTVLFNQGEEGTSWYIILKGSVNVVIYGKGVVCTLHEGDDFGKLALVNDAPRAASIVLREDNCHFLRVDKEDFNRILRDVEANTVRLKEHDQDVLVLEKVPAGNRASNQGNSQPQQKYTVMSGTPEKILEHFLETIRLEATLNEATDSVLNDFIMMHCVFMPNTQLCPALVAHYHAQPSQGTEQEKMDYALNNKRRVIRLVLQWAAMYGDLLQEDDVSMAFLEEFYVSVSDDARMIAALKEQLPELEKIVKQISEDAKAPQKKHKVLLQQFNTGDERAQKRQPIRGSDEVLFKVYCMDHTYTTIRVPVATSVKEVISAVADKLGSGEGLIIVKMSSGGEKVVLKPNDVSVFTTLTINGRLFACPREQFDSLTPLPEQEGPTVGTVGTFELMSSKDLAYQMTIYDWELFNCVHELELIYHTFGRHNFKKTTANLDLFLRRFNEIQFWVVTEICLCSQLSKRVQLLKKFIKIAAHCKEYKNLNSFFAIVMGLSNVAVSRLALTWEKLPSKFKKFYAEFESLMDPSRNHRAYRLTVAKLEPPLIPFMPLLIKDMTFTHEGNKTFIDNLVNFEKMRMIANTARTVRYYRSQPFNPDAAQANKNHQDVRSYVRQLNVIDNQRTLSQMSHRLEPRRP
On the technique in general: qHTS replaces the single test concentration by a dilution series.
`CC1(C)CC(C(=O)N2CCOc3ccc(CN4CCC(Oc5cccnc5)CC4)cc3C2)CCO1` (configuration not stated): the activation was inactive: -8.93%. For the compound `COc1cc(=O)n2c(c1C(=O)N(C)Cc1nonc1C)CCN(Cc1cccc3ccccc13)CC2`, the activation was inactive: 1.41%. Take `C[N+]1(CC(=O)c2ccc(I)cc2)CCOCC1`: the activation was inactive: -23.6%. As for `CCCC1C(=O)N2C(N(C)C)=Nc3ccc(C)cc3N2C1=O` (configuration not stated), the figure is inactive: -4.7%; as for `Clc1ccc(C(Cn2ccnc2)OCc2ccsc2Cl)c(Cl)c1` (configuration not stated), inactive: 1.07%; as for `CN(C)C(=O)c1ccc(-c2cncnc2NCc2cccs2)cc1`, inactive: -19.8%. Consider `N[C@H]1CN(c2c(F)cc3c(=O)c(C(=O)O)cn(C4C[C@@H]4F)c3c2Cl)CC12CC2` (some centres not stated), for which the activation was inactive: -10.1%. On to `CCNc1ncc2nc(-c3ccc(Cl)cc3)c(=O)n(-c3ccc(OC)cc3)c2n1`, for which the activation is inactive: -19.6%.

Regarding `O=C(c1csnn1)N1CCC2(CC1)CN(C(c1ccccc1)c1ccccc1)C2`, the activation is inactive: -16.5%.

Turning to `CC1(C)CCC(=O)N2CC[C@H]3C[C@H](OC(=O)Nc4ccc(Br)cc4)C[C@@H]1[C@H]32`, the activation was inactive: -6.77%.

With `c1cnc(N2CCN(Cc3ccc4c(c3)OCO4)CC2)nc1`, the activation was inactive: -7.54% and inactive: 2.56% and inactive: -2.4%.

`c1nc(NC2CC2)c2cc(-c3ccoc3)ccc2n1`: the activation was inactive: -16%. For the compound `c1ccc(CNc2ncnc3ccc(-c4cccnc4)cc23)cc1`, the activation was inactive: -9.08%.

Turning to `C/C(=C\CNc1ncnc2nc[nH]c12)CO`, the activation was inactive: 5.21%. With `C[C@](N)(Cc1ccc(O)c(O)c1)C(=O)O`, the activation was inactive: -14.6% and inactive: 5.13% and inactive: -20.3%. Then `CCc1ncnc2cc(OC)c(OC)cc12`, with inactive: -1.63%. Then `Cc1cc2c(c(-c3cnccn3)c1)OC(CNC(=O)C1CCCN(C)C1)C2` (configuration not stated), with inactive: -7.13%; and `COc1ccc(CNc2ccnc(-c3ccccc3OC)n2)c(OC)c1`, with inactive: 5.27%. Then `Clc1ccc2nccnc2c1`, with inactive: -20.9%; and `COc1ccccc1C(=O)N1CCOc2ccc(C(C)(O)CCn3cccn3)cc2C1` (configuration not stated), with inactive: -1.67%. Regarding `CC(=O)N1CCN(c2ccc(OCC3CO[C@@](Cn4ccnc4)(c4ccc(Cl)cc4Cl)O3)cc2)CC1` (some centres not stated), the activation is inactive: -12.7%.

Take `Cc1c(C(=O)NN2CCCCC2)nn(-c2ccc(Cl)cc2Cl)c1-c1ccc(Cl)cc1`: the activation was inactive: -22.9%. For the compound `Cc1cccc(CNc2ncnc3ccc(-c4ccoc4)cc23)c1`, the activation is inactive: -10.8%. For `Cn1cccc1C(=O)N1CCC2(CCCN(c3ccccc3)C2)CC1`, the activation was inactive: -11.3%. As for `O=C(Nc1ccccc1)N1CC2(CCN(C(=O)c3cccc(F)c3)CC2)C1`, the figure is inactive: 1.64%. Take `O=c1c(-c2ccc(F)cc2)nc2cnc(Oc3ccccc3)nc2n1C1CC1`: the activation is inactive: -7.07%.

Consider `OC1(c2cccnc2)CCN(Cc2ccc3c(c2)CN(Cc2cc(F)ccc2F)CCO3)CC1`, for which the activation is inactive: -6.02%. Turning to `NS(=O)(=O)c1ccc(Cl)c(S(N)(=O)=O)c1`, the activation is inactive: 10.8%. For the compound `CCC1COCCS(=O)(=O)N1Cc1ccccc1C` (configuration not stated), the activation was inactive: -28.9%. As to `CN(C)Cc1ccccc1-c1cncnc1NCc1cccs1`, the activation is inactive: -18.3%. For the compound `COc1cc(C)c2ccccc2n1`, the activation is inactive: -24.7%. For the compound `CC(C)(C)c1ccc(S(=O)(=O)/C=C\C#N)cc1`, the activation was inactive: -23%. For `COC(=O)c1cc(=O)c(O)c2c(O)c(O)ccc2c1`, the activation is inactive: -17.6%. Consider `COC(=O)C1CCCCN1Cc1nc(N2CCCN(C(C)=O)CC2)c2ccccc2n1` (configuration not stated), for which the activation is inactive: -9.14%. As to `COc1cccc(-c2nc(Nc3ccncc3)c3ccccc3n2)c1`, the activation was inactive: 16.2%. Turning to `COC(=O)/C=C/c1ccc(C(=O)NCC(=O)N[C@@H](CCC(=O)OC)C(=O)N[C@@H](CC(C)C)C(N)=O)cc1`, the activation was inactive: -0.969%. On to `C=CC(C1=CC(=O)C(OC)=CC1=O)c1ccccc1` (configuration not stated), for which the activation was inactive: 2.24%. As to `COc1cc2c(cc1OC)CC(=O)N(CCCN(C)C[C@H]1Cc3cc(OC)c(OC)cc31)CC2`, the activation is inactive: 5.82%.

As to `O=C(c1cnccn1)N1CCC2(CCN(Cc3ccccc3)CC2)CC1`, the activation was inactive: 0.116%. As to `NCC1OC(n2cnc3c(=O)[nH]c(N)nc32)C(O)C1O` (configuration not stated), the activation was inactive: 7.25%. With `CC[N+](CC)(CC)CCOc1ccc(/C=C\c2ccccc2)cc1`, the activation is inactive: -11.5%. For `O=c1c(-c2ccccc2)nc2cnc(N3CCOCC3)nc2n1C[C@H]1CCCO1`, the activation was inactive: -3.07%.

`CCCCCCCCCCCCOCCOCCOCCOCCOCCOCCOCCOCCOCCO`: the activation is inactive: -54.4%. Turning to `COCCCNc1ncnc2sc(C(=O)N3CCOCC3)c(C)c12`, the activation was inactive: -19.6%. Consider `CO[C@H]1[C@H](NC(=O)C(C)C)c2ccccc2C12CCN(Cc1c(C)nn(C)c1Cl)CC2`, for which the activation is inactive: -0.554%. As for `CCn1c(-c2ccccc2F)nc2cc(C(=O)NCC3CCOCC3)cc(NC(C)=O)c21`, the activation is inactive: -1.26%. As for `O=C(Nc1ccccc1)N1CCC2(CCNCC2)CC1`, the figure is inactive: -8.32%. In the case of `CSc1cc2c(cc1C(F)(F)F)N(C(=O)Nc1cccnc1)CC2`, the activation is inactive: -12.2%.

With `CCCCC`, the activation was inactive: 2.77%. As to `c1cncc(CNc2ncncc2-c2ccoc2)c1`, the activation was inactive: -8.07%.

As for `C/C(=C\c1ccco1)CN1CCOc2ccc(CN3CCC(Oc4cccnc4)CC3)cc2C1`, the activation is inactive: -11.2%. With `CC1(C)OC[C@@H]2O[C@@]3(C(=O)O)OC(C)(C)O[C@H]3[C@@H]2O1`, the activation was inactive: 10.2%. For `CC(C)/C(O)=C1/C(=O)OC(c2ccoc2)[C@@]2(C)C(O)C(O)[C@@]34OC5(C)OC67CC(C)(C(O)[C@@]6(O)C(O)[C@@]3(O5)C12)C(CC(=O)O)[C@@]74C` (some centres not stated), the activation is inactive: -11.9%. In the case of `Cc1ccc2c(/C=C/c3ccc(N(C)C)cc3)ccnc2c1C`, the activation was inactive: -15.7%. In the case of `Cc1noc(C)c1C(=O)N1CCC2(CCCN(C(=O)Nc3cccc(F)c3)C2)CC1`, the activation was inactive: -14.1%. With `COc1cc2c(Nc3ccc(Br)cc3F)ncnc2cc1OCC1CCN(C)CC1`, the activation is inactive: 19.4%.

`CS(=O)(=O)N1CCC2(CCN(Cc3ccc(C#N)cc3)CC2)CC1`: the activation was inactive: -22.1%.
